For this experiment, the system named is CD2F1 mice, L1210 leukemia ip, survival T/C. Kind of experiment: NCI In Vivo Anticancer Drug Screen. Data for tumor model L1210 Leukemia (intraperitoneal) in CD2F1 (CDF1) mice. Particulars: higher = longer survival. How it is done: The antitumor activity of compounds was measured in mice bearing transplantable tumors. Survival or tumor size were measured and the results are expressed as the measurement made in the treated group (T) divided by the measurement made in the vehicle treated control group (C). The tumor model used in this assay is L1210 Leukemia (intraperitoneal) in CD2F1 (CDF1) mice

Molecules are shown by their SMILES. Toxic doses and inconclusive results are not listed. Not every entry of the source has a single result; some have several. This list holds those alone. There may be further records. Results that share an entry are repeats (runs, samples, wells, individuals or studies). Marks in square brackets tell the records apart. Letters count within one entry.

For the molecule `NC(=O)c1c[se]c(C2OC(CO)C(O)C2O)n1` (centres undefined), the T/C (endpoint: median survival time, dose: 200.0 mg/kg/injection, schedule: Q01DX009 (ip), vehicle: water) was 122 % of control and 198 % of control.

With `CC([NH-])CC(C)[NH-].[Cl][Pt+2][Cl]` (centres undefined), the T/C (endpoint: mean survival time, dose: 12.5 mg/kg/injection, schedule: Q04DX003 (ip), vehicle: saline with Tween-80) is 153 % of control [sample A] and 118 % of control [sample B].

Consider `CN(C)c1ccc2c(Nc3ccc(NS(C)(=O)=O)cc3)c3ccc(N(C)C)cc3nc2c1`, for which the T/C (endpoint: median survival time, dose: 400.0 mg/kg/injection, schedule: Q01DX009 (ip), vehicle: Klucel (hydroxypropylcellulose) (HPC)) was 95 % of control and 180 % of control.

As to `CO[C@@]12[C@@H]3N[C@@H]3CN1C1=C(C(=O)C(N3CCCC3)=C(C)C1=O)[C@@H]2COC(N)=O`, under “endpoint: median survival time, dose: 48.0 mg/kg/injection, schedule: Q01DX001 (ip), vehicle: saline with Tween-80”, the T/C was 86 % of control and 172 % of control.

For the molecule `CCCCNC(C)(C)C(SS)c1cccs1` (centres undefined), where the note is “endpoint: mean survival time, dose: 100.0 mg/kg/injection, schedule: Q01DX009 (ip), vehicle: other”, the T/C was 91 % of control and 153 % of control.

Consider `CC[C@](O)(C(=O)O)c1cc2n(c(=O)c1CO)Cc1cc3ccccc3nc1-2`, for which the T/C (endpoint: mean survival time, dose: 25.0 mg/kg/injection, schedule: Q04DX003 (ip), vehicle: water) was 119 % of control and 178 % of control; the T/C (endpoint: median survival time, dose: 10.0 mg/kg/injection, schedule: Q04DX002 (ip), vehicle: saline) is recorded as 118 % of control, 124 % of control, 153 % of control.

Consider `CN(C)CCNc1ccc(CO)c2sc3ccc(O)cc3c(=O)c12`, for which the T/C was 118 % of control and 162 % of control (endpoint: median survival time, dose: 50.0 mg/kg/injection, schedule: Q01DX005 (ip), vehicle: saline with Tween-80); 103 % of control, 112 % of control, 157 % of control (endpoint: median survival time, dose: 200.0 mg/kg/injection, schedule: Q01DX005 (ip), vehicle: saline with Tween-80).

Turning to `Nc1nc(N)c2c(Cl)c(CNc3ccc(Cl)c(Cl)c3)ccc2n1`, the T/C (endpoint: median survival time, dose: 12.5 mg/kg/injection, schedule: Q01DX009 (ip), vehicle: saline with Tween-80) was 110 % of control and 150 % of control.

In the case of `CCc1nc(N)nc(N)c1-c1ccc(Cl)c(N=[N+]=[N-])c1`, the T/C is, setting by setting: (endpoint: median survival time, dose: 200.0 mg/kg/injection, schedule: Q01DX009 (ip), vehicle: distilled water + Tween-80) 121 % of control and 158 % of control; (endpoint: median survival time, dose: 400.0 mg/kg/injection, schedule: Q01DX009 (ip), vehicle: distilled water + Tween-80) 111 % of control and 158 % of control.

As to `O=S(=O)(O)O.[NH-]C1CCCCCC1[NH-].[Pt+2]` (centres undefined), the T/C (endpoint: mean survival time, dose: 6.25 mg/kg/injection, schedule: Q04DX003 (ip), vehicle: dextrose) is 109 % of control and 156 % of control.

As to `CCOC(=O)Nc1cc2c(c(N)n1)N=C(c1ccccc1)CO2`, the T/C (endpoint: median survival time, dose: 400.0 mg/kg/injection, schedule: Q01DX009 (ip), vehicle: saline with Tween-80) is 122 % of control and 156 % of control.

The record behind these values is PubChem BioAssay AID256 (DTP/NCI, 2004).
